Consider 57 compounds from article PMC4336329 (PLoS ONE, 2015).

In all, about 310,000 compounds went through this assay and about 14,000 (4.5%) showed an effect of 50% or more. The effect is printed as a negative number. This is one part of the list.
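Further: peak tail current of the secondary pulse compared with the same well before compound.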

For the experiment, the target named is human ether-à-go-go-related gene (hERG) potassium channel (human, UniProt Q12809). Kind of experiment: primary screen, population patch clamp on CHO cells stably expressing hERG.
Sequence of human ether-à-go-go-related gene (hERG) potassium channel (Q12809 whole entry, looked up): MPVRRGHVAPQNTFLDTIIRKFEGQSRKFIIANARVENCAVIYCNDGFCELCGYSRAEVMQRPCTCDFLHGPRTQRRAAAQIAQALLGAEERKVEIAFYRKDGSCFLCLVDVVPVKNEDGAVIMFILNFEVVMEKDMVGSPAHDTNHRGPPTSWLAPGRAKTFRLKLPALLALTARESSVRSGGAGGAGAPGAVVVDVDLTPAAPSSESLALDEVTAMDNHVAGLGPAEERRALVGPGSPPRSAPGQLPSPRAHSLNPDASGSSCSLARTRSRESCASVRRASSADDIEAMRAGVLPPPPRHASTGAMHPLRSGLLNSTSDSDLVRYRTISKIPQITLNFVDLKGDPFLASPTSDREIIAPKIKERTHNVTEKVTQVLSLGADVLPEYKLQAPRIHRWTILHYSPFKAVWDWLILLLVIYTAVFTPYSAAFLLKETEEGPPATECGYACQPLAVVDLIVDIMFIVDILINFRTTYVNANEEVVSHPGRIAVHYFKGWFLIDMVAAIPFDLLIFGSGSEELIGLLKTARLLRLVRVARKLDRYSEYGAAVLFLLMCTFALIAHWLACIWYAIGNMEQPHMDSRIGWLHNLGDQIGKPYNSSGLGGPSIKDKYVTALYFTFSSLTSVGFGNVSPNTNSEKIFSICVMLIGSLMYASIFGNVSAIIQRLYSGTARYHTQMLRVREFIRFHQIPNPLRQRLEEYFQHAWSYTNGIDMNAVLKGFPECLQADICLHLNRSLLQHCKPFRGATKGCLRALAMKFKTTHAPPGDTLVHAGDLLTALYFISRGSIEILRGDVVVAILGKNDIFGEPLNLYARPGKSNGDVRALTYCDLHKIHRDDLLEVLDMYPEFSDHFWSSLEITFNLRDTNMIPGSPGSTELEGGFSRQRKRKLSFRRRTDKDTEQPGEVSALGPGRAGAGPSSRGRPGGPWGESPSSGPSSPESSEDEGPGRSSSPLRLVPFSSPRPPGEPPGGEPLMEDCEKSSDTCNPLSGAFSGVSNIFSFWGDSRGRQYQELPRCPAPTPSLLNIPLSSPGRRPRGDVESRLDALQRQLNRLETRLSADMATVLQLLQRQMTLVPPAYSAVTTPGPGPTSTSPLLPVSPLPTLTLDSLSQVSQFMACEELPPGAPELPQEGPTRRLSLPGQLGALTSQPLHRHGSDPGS
Take `C=CCOC(=O)c1ccc(N2CCN(c3ccccc3)CC2)nc1`: the “hERG current change (%, negative = inhibition) at 10uM” value came to 12.3%.
Consider `CC(C)c1nc(SCC(=O)N2CCCC2)c2c(=O)n(C)c(=O)n(C)c2n1`, for which the “hERG current change (%, negative = inhibition) at 10uM” value is given as -21.8%.
For `O=C(CC1C(=O)Nc2ccccc2N1CC(=O)N1CCCC1)Nc1ccc(Br)cc1` (stereo not drawn), the “hERG current change (%, negative = inhibition) at 10uM” value was -7.16%.
For `CCC1CCCCN1CCCNC(=O)c1cc2c(Cl)nc3ccccc3c2s1` (stereo not drawn), the “hERG current change (%, negative = inhibition) at 10uM” value is recorded as -76.6%.
Consider `CC(=O)c1cccc(NC(=O)COc2ccc(S(=O)(=O)N3CCOCC3)cc2)c1`, for which the “hERG current change (%, negative = inhibition) at 10uM” value is given as -10.1%.
On to `CCN(CC)C(=O)CSc1nc(C)cc(C)n1`, for which the “hERG current change (%, negative = inhibition) at 10uM” value came to 9.66%.
As to `Cc1cccc(C)c1NC(=O)NCCSc1snnc1C`, the “hERG current change (%, negative = inhibition) at 10uM” value turned out to be 24.5%.
As to `C=CCn1c(SCC(=O)N(C)C2CCS(=O)(=O)C2)nnc1-c1ccccc1` (stereo not drawn), the “hERG current change (%, negative = inhibition) at 10uM” value is given as 16.8%.
In the case of `COC(=O)[C@H](CCSC)NC(=O)Nc1ccc(C)cc1C`, the “hERG current change (%, negative = inhibition) at 10uM” value is listed as 10.5%.
Turning to `O=C(CCCN1C(=O)CCC1=O)Nc1ccc2c(c1)OCCO2`, the “hERG current change (%, negative = inhibition) at 10uM” value worked out at 6.3%.
Next, `CCOC(=O)C1=C(c2ccccc2)O/C(=C(/C#N)C(F)(F)F)S1`: 17.4%.
Next, `Brc1ccc(Cn2c(-c3cncs3)nc3ccccc32)cc1`: -0.72%; `CCC1Oc2ccccc2N(CC(=O)NC2CCCCC2C)C1=O` (stereo not drawn): -5.63%; `CCC(C)n1c(-c2cc(OC)c(OC)c(OC)c2)nc2nc3ccccc3nc21` (stereo not drawn): -50.9%.
Turning to `O=c1[nH]cccc1-c1nc2ccccc2[nH]1`, the “hERG current change (%, negative = inhibition) at 10uM” value came to 12.8%.
On to `N#CC(CC(=O)c1ccc(F)cc1)c1ccc2c(c1)OCO2` (stereo not drawn), for which the “hERG current change (%, negative = inhibition) at 10uM” value was -15.2%.
As to `CCN(CC)CCNC(=O)CN1C(=O)COc2ccc(S(=O)(=O)N3CCOCC3)cc21`, the “hERG current change (%, negative = inhibition) at 10uM” value is reported as 18.2%.
As for `Cc1ccc(N2C(=O)c3cccc4c(Oc5ccccc5[N+](=O)[O-])ccc(c34)C2=O)c(C)c1`, the “hERG current change (%, negative = inhibition) at 10uM” value is 3.74%.
Next, `CC(C)c1onc(C(=O)NCc2ccccn2)c1[N+](=O)[O-]`: -1.61%.
On to `Cn1c2ccccc2c2cc(C(=O)N3CCOCC3)sc21`, for which the “hERG current change (%, negative = inhibition) at 10uM” value worked out at 9.07%.
For `COc1ccc(NS(=O)(=O)c2cc(NC(=O)CCNC(C)=O)ccc2N2CCCCC2)cc1`, the “hERG current change (%, negative = inhibition) at 10uM” value is -21.8%.
Turning to `CC1(C)Cc2cccc(OCC(=O)N3CCN(S(=O)(=O)c4ccccc4F)CC3)c2O1`, the “hERG current change (%, negative = inhibition) at 10uM” value was -14.6%.
With `Cc1cccc(CSc2nc(N)c(C#N)c(-c3cccs3)c2C#N)c1`, the “hERG current change (%, negative = inhibition) at 10uM” value is -10%.
With `CCC1=C(c2cc(OC)c(OC)c(OC)c2)C2(CCCC2)C(=O)O1`, the “hERG current change (%, negative = inhibition) at 10uM” value is recorded as -29.2%.
For `CC(=O)Nc1cccc(-c2nnc(-c3ccc(C)cc3)o2)c1`, the “hERG current change (%, negative = inhibition) at 10uM” value is 3.08%.
As to `CNS(=O)(=O)c1ccc(NC(=O)Nc2cccc(F)c2)cc1`, the “hERG current change (%, negative = inhibition) at 10uM” value worked out at 12.9%.
For `COc1cccc(C(=O)NNC(=O)C(=O)Nc2ccc(C)cc2)c1`, the “hERG current change (%, negative = inhibition) at 10uM” value is given as 9.51%.
On to `COc1ccc(CC(=S)N2CCOCC2)cc1F`, for which the “hERG current change (%, negative = inhibition) at 10uM” value was found to be 0.299%.
With `Brc1ccc(-c2ccc(CNCc3ccccn3)o2)cc1.Cl`, the “hERG current change (%, negative = inhibition) at 10uM” value is reported as -27.3%.
In the case of `Cc1ccc(O)c(-c2cc(C(=O)NCc3ccc4c(c3)OCO4)[nH]n2)c1`, the “hERG current change (%, negative = inhibition) at 10uM” value is on record as -4.87%.
Consider `Cc1cc(OCC(=O)O/N=C(\N)Cc2cccs2)ccc1Br`, for which the “hERG current change (%, negative = inhibition) at 10uM” value is reported as 10.5%.
The same measure for `Cn1cccc1C(=O)NC(=O)CSc1cccc[n+]1[O-]`: 12%; for `O=C(CN1CCN(Cc2cccc(Cl)c2)C1=O)NCc1cccs1`: -25.8%; for `O=C(c1cccs1)N1CCN(C2CCN(Cc3ccccc3)CC2)CC1`: -64.3%.
Regarding `CCOc1nc(-c2ccc(C)cc2)ccc1-c1noc(COC)n1`, the “hERG current change (%, negative = inhibition) at 10uM” value is listed as -2.63%.
On to `Cc1ccc(CN(CC(=O)NC2CCCC2)C(=O)c2csnn2)cc1`, for which the “hERG current change (%, negative = inhibition) at 10uM” value is reported as -3.38%.
The same measure for `Cc1ccc(-c2cc(N)n(-c3ccc(F)cc3)n2)cc1`: -1.66%; for `COc1ccccc1C1CC(=O)NC(C)=C1C(=O)OC(C)C` (stereo not drawn): 3.24%.
As for `CC(C)(C)OC(=O)N1CC2Cc3[nH]c(=O)ccc3C(C2)C1` (stereo not drawn), the “hERG current change (%, negative = inhibition) at 10uM” value was 5.99%.
On to `CC(C)(C)NC(=O)NC(=O)COC(=O)C1CCN(S(=O)(=O)c2cccs2)CC1`, for which the “hERG current change (%, negative = inhibition) at 10uM” value is listed as 9.39%.
As for `CCOc1ccc(C(C)NC(=O)C2CCCC2)cc1` (stereo not drawn), the “hERG current change (%, negative = inhibition) at 10uM” value turned out to be 3.62%.
`Cc1ccc2ccc(C3C(=O)c4ccccc4C3=O)nc2c1`: the “hERG current change (%, negative = inhibition) at 10uM” value is 12.7%.
Next, `CCCCn1c(C23CC4CC(CC(C4)C2)C3)n[nH]c1=S`: -5.15%; `COc1ccc(CCN(C(=O)/C=C/C(=O)O)C2CC(=O)N(c3ccccc3)C2=O)cc1` (stereo not drawn): 12.5%; `O=C(Nc1ccc(Cl)cc1)c1ccc2ncsc2c1`: 8.99%.
The same measure for `CCOc1ccc(C(C)=O)cc1COc1ccc(C)nc1[N+](=O)[O-]`: 3.57%; for `CC1CC(C)(C)N2C(=O)C3(Nc4ccccc4S3)c3cccc1c32` (stereo not drawn): 22.1%; for `N#CC1=C2N=C(N)c3ccccc3N2C2=C(C(=O)CCC2)C1c1ccc(Cl)cc1` (stereo not drawn): -13.6%.
The same measure for `COC(=O)c1cccc(OCC(O)Cn2ccnc2)c1` (stereo not drawn): -3.46%; for `C=CCn1c(SCc2cc(=O)n3ccsc3n2)nc2scc(C3CC3)c2c1=O`: -9.75%.
On to `Cc1cc(OCC(=O)NCc2cccnc2)c2c(C)c(Cc3ccccc3)c(=O)oc2c1`, for which the “hERG current change (%, negative = inhibition) at 10uM” value is -16.8%.
Consider `Cc1ccc(S(=O)(=O)N2CCCCC2)cc1NC(=O)c1ccc2c(=O)n3c(nc2c1)CCCCC3`, for which the “hERG current change (%, negative = inhibition) at 10uM” value is reported as -64.1%.
Regarding `NC(=O)C1CC=CCC1C(=O)OCC(Cl)=C(Cl)Cl` (stereo not drawn), the “hERG current change (%, negative = inhibition) at 10uM” value is 22.9%.
As for `CC(C)N(Cc1ccccc1)C(=O)CSc1nccn1C`, the “hERG current change (%, negative = inhibition) at 10uM” value turned out to be 11.9%.
`COC(=O)c1c(NC(=O)c2ccco2)sc(C(=O)Nc2ccc(F)cc2)c1C`: the “hERG current change (%, negative = inhibition) at 10uM” value came to 8.19%.
On to `CC(=O)Nc1ccc(C(=O)OCC(=O)N(C)C2CCCCC2)cc1`, for which the “hERG current change (%, negative = inhibition) at 10uM” value was found to be 18.3%.
For the compound `CCC(C)C1=CC(=Nc2c(C)n(C)n(-c3ccccc3)c2=O)C=C(C(C)CC)C1=O` (stereo not drawn), the “hERG current change (%, negative = inhibition) at 10uM” value turned out to be 8.91%.
